# In the supplement of paper PMC3334620:
# The full ranking holds about 33,000 sequences; the median of “E-score (-0.5 to 0.5)” is about -0.041, and the highest 2% start at about 0.37. This is one part of the list.
# Target: T1, Ecm22 (UniProt Q05958)
# T1 sequence: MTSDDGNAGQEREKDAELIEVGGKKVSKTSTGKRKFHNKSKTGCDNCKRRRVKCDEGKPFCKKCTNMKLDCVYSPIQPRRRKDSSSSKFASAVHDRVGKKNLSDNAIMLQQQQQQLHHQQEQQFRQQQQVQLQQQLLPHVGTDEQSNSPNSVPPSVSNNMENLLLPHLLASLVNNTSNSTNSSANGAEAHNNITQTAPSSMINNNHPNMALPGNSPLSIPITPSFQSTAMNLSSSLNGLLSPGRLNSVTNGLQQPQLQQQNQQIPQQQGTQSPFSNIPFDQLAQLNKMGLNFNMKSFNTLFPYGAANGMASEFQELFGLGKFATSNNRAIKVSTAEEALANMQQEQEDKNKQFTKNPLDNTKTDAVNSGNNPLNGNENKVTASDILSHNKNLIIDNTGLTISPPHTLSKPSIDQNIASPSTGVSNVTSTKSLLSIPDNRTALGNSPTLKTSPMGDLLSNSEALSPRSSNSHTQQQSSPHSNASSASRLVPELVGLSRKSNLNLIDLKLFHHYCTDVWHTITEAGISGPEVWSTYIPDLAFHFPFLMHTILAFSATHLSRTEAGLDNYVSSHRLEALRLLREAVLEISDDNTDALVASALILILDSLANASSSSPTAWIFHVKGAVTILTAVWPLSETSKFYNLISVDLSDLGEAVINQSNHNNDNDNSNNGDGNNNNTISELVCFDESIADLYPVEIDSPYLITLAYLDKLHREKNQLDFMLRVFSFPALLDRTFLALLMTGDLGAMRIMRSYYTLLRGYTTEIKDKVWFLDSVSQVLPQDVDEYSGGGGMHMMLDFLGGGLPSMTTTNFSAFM
# Experiment: PBM E-score (8-mer binding enrichment) (E-score (-0.5 to 0.5)); higher = stronger / more preferred TF binding; most listed sequences are background and not binding sites
# Conditions: protein concentration: 200 nM; construct: GST-full length
# How it was run: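 Universal all-10-mer Agilent arrays, fresh or stripped once, were converted to double-stranded form by primer extension. GST-tagged yeast transcription factors from PURExpress in vitro transcription/translation, full-length or DNA-binding domain only, were applied at about 100-200 nM and detected with fluorescent anti-GST. After masliner normalisation, the Universal PBM Analysis Suite scored each ungapped eight-base word together with its reverse complement by E-score.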
row,Sequence,PBM E-score
1,GACATGAA,-0.195
2,CGCTTTCA,0.0279
3,AATACTCG,0.125
4,CTACAAGA,-0.133
5,CGTCTGTC,-0.0468
6,CTCTAACC,-0.209
7,CAGCTCCG,0.0485
8,TAAGCCTA,-0.106
9,AACTATAA,0.039
10,CTTCTAAC,-0.264
11,GGACTTCA,-0.293
12,CGTAGCAG,0.191
13,ACTTGGCA,-0.0966
14,GATGGACC,0.058
15,CGACGCAC,0.208
16,GTTCTCAA,0.0253
17,AGCCTATG,-0.213
18,ACTACAAG,-0.0142
19,ACTTCGCG,0.198
20,GACGTTAC,0.119
21,GTCTGGAA,-0.153
22,AAGGAGCG,0.175
23,AGGGTACC,-0.323
24,GCGACATA,0.22
25,GATATCCC,0.00619

row,Sequence,PBM E-score
1,AATTCACC,0.0105
2,AAGATGGC,-0.155
3,ATGATCGA,0.159
4,CAATGTGC,0.0423
5,GATATGCA,-0.0569
6,ACGGATCC,0.143
7,TACCCTAA,-0.0756
8,GTGCAACA,-0.186
9,AGGTTTAT,0.124
10,GTGTGATA,0.114
11,CGATGTTA,0.059
12,CCTGTGCG,0.11
13,CAACTTAA,-0.0758
14,AGTAGAAA,0.209
15,CACTTACC,0.123
16,TGCCATAA,-0.175
17,CGGGGAAA,0.129
18,GAAGTAAC,0.00286
19,GTAACAAC,0.0567
20,AAGTCTTA,-0.235
21,GGCGTGCA,-0.335
22,GCTAACAA,-0.0961
23,CGTCGATC,0.0984
24,CTCATCGC,0.12
25,ACCATAGA,-0.0717

row,Sequence,PBM E-score
1,GTGCATGA,-0.0809
2,TACACACA,0.114
3,CTAACAAA,-0.111
4,AACCAGTA,0.0606
5,AAACTGAT,-0.143
6,ATAATGAG,0.0122
7,CACACCTG,-0.231
8,GCCTACCA,-0.208
9,AGGCACGG,-0.211
10,CTCAGTTC,-0.0715
11,AAGACGTG,-0.277
12,GCATAGTA,0.145
13,AGATTGAT,-0.192
14,GCCGTCTA,-0.065
15,CATGTTGA,0.00657
16,CCATGCTA,-0.221
17,ATCTGTCG,0.273
18,ATCCCTTA,0.0128
19,TCTTCAAA,-0.272
20,ATCTAAAA,-0.0793
21,CTGATAAC,0.0201
22,AATTTTTC,-0.00256
23,CGCACTCC,-0.141
24,ACCCGAAT,0.193
25,ACTGACTG,-0.0687

row,Sequence,PBM E-score
1,TAATACTA,0.114
2,AACGGACA,0.18
3,CCTAATGC,-0.239
4,AGGCGTAC,0.189
5,ACGGAGCC,-0.084
6,ACTTGTAG,0.00491
7,GACTTAGC,-0.147
8,ACAGTGCC,0.018
9,ACCTCGGC,0.0664
10,TCCTCGAA,0.00767
11,GAAAATTC,-0.0137
12,ATCCGCAC,-0.0995
13,GGATACAC,-0.032
14,CACAATCA,-0.129
15,ATCTTGCC,-0.0639
16,CCATAAAG,-0.136
17,AGACGCAT,-0.0787
18,TCCCCGGA,0.00406
19,GAACCGCC,-0.00706
20,CTAGTTTC,0.0456
21,CAGGGGAA,-0.0465
22,CGTTCGCC,0.196
23,CGTAAGGC,0.143
24,TCGCACCA,0.324
25,CGCACGGA,0.0184

row,Sequence,PBM E-score
1,GAGATTAC,0.0343
2,CGGTCGCC,0.183
3,CTACACCC,-0.4
4,GCGGCCAC,-0.227
5,CGGTATCC,0.0456
6,TTACCCAA,-0.096
7,ACCACACT,-0.0561
8,ATAAATAT,0.099
9,CTGAGGGC,-0.18
10,CCCTCGCG,0.25
11,TAGTGCGA,0.0691
12,TAGCTTGA,0.0442
13,ATAATTGA,0.0412
14,GACGAAGA,0.0867
15,CGTGTAAC,-0.00508
16,ATCCCTCC,-0.275
17,AGTGAGAA,-0.0668
18,AGTACCAT,0.0273
19,GCTCGCTA,0.31
20,ATAGGAGG,-0.29
21,TGGAATAA,-0.0683
22,CAGACATG,-0.147
23,AGCTACCC,-0.256
24,ATTATGCC,0.0538
25,CGACCGTC,-0.036

row,Sequence,PBM E-score
1,ACAACCGA,0.26
2,AGCGCGCG,0.162
3,AATTCACT,-0.294
4,ACAGTCCT,-0.312
5,AAACCTCG,0.131
6,ATCCTCAC,0.0944
7,ATTGAAGA,-0.154
8,AGAGCTGA,-0.168
9,AGAGATTG,-0.0841
10,ATTGTTCC,-0.00518
11,AGTCGGCA,0.00779
12,GCGCAGCC,-0.288
13,AGGCGGAG,0.0195
14,AAGCTCGG,0.116
15,CAATATTA,0.183
16,CTCCTAAA,-0.166
17,TAGGAAAA,-0.269
18,ACCGCTTA,0.115
19,CCCTGTCC,-0.0638
20,AATGAAGC,-0.0973
21,GACTTGAC,-0.143
22,CCGTCTTA,-0.174
23,ATGTAATC,0.0489
24,AATCCCCC,-0.204
25,GCGGCAAA,-0.104

row,Sequence,PBM E-score
1,CGAATGTA,0.175
2,AATCGCTG,-0.104
3,CAGCAAGA,-0.0339
4,CTGCAAAC,0.0508
5,CGCCATTA,-0.106
6,CAAACTCC,0.0835
7,GATAGGCA,0.0183
8,AGAGACAA,-0.245
9,TGAGCTAA,-0.196
10,AACATGGT,-0.166
11,GGAGCTAA,-0.0044
12,CGCGTGAA,0.208
13,TATGAAAA,-0.104
14,GAACTGGA,-0.0453
15,ATGGTCAG,-0.0222
16,AGGATTAA,-0.266
17,GGACGCCA,-0.132
18,GCCGACCA,-0.187
19,CATAGGGG,-0.244
20,AGGTAAGG,-0.198
21,CGAGCCGC,0.29
22,ATCCTAAC,-0.0441
